Read counts are not given, so values of variants with three or more changes are uncertain.

The labels stand for the following.
B1: CPEB3 Ribozyme (parent)
chain: UAACAGGGGGCCACAGCAGAAGCGUUCACGUCGCAGCCCCUGUCAGAUUCUGGUGAAUCUGCGAAUUCUGCUGUAUAUCUC

The variants in this data set derive from B1. Nature of the data set: self-cleavage, relative activity (ratio to wild type); higher = more cleavage; in vitro, sequencing. In outline: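 Relative activity was defined as the cleaved/total read fraction for a variant divided by the same fraction for the unmutated ribozyme. CPEB3 self-cleaving ribozyme libraries were made by rounds of error-prone PCR, barcoded, and transcribed in vitro with T7 RNA polymerase for 5 hours at 37°C, and cleavage ran through transcription plus a 15 min DNase I step before EDTA. Illumina sequencing of template-switched reverse transcripts gave the reads, and DNA sequencing mapped the barcodes. Averages come from three batches, using variants with at least 5 reads.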
Consider UAACAGGGGGCCACGGCAGGAGCGUUCACGCCGCAGCCCCUGUCAGAUUCUGGUGAAUCUGCGAAUUCUGCUGUAUAUCUC [A15G A20G U31C], for which the self-cleavage was determined as 0.51.
Regarding UAACAGGGGGCCACGGCAGACGCGUUCACGUCGCAGCCCCUGACAGAUACUGGUGAAUCUGCGAAUUCUGCUGUAUAUCUC [A15G A21C U43A U49A], the self-cleavage worked out at 0.29.
Turning to UAACAGGGGGCCACGGCAGGAGCGUACACGUCGCAGCCCCUGUCUGAUUCUGGUGAAUCCGCGAAUUCUGCUGUAUAUCUC [A15G A20G U26A A45U U60C], the self-cleavage was 0.09.
Take UAACAGGGGGCCACGGCAGAGGCGUUCCCGUCGCAGCCCCUGUCAGAUUCUGGUGAAUCCGCGAAUUCUGCUGUAUAUCCC [A15G A21G A28C U60C U80C]: the self-cleavage turned out to be 0.33.
With UAACAGGGGGCCACGGCAGGAGCGUUCACGUCGCAGCCCCUGUCAGAUUCAAGUGAAACUGCGAGUUCUGCUGUAUAUCUC [A15G A20G U51A G52A U58A A65G], the self-cleavage came out at 0.34.
With UAACAGGGGGCCACGGCAGGAGCGCUCACGACGCAGCCCCUGUCAGACUCUGGUGAAUCUGCGAAUUCUGCUGAAUAUCUC [A15G A20G U25C U31A U48C U74A], the self-cleavage worked out at 0.55.
The figure for UAACAGGGGGCCACGGCAGGAGCGCUCACGUCGCAGCCCCAGUCAGAUUCUGGUGAAUCUGCGAAUUCUGCUGUAUAUCUC [A15G A20G U25C U41A] is 0.34; for UAACAGGGGGCCACGGCAGUGGCGUUCACGUCGCAGCCCCUGUCAGAUUCUGGUGAACCAGCGAAUUCUGCUGUAUAUCUC [A15G A20U A21G U58C U60A] it is 0.2; for UAACAGGGGGCCACGGCAGUAGCGUUCACGUCGCGGCCCCUGUCAGAUUCAGGCGAAUCUGCGAAUUCUGCGGUAUAUCUC [A15G A20U A35G U51A U54C U72G] it is 0.1.
With UAACAGGGGGCCACGGCAGGAGCGUUCACGUCGCAGCCCCUGACGGAUUCUGGUGAAUCAGCGAAUUCUGCUGUAUAUCUC [A15G A20G U43A A45G U60A], the self-cleavage came out at 0.13.
The figure for UAACAGGGGGCCACGGCAGGAGCAUUCACUUCGCAGCCCCUGUCAGAUUCUGGUGAAUCUGCGAAUUCUGCUGUAUAUCUC [A15G A20G G24A G30U] is 0.4.
Consider UAACAGGGGGCCACGGCAGGAGCGUUCACGUCGCAGCCCCCGUCAGAUUCUGGUGAAUCUGCGAAUUCUGCUGCAUAUCUC [A15G A20G U41C U74C], for which the self-cleavage was determined as 0.9.
With UAACAGGGGGCCACGGCAGAGGCGUUCGCGUCGCAGCCCCUGUCAGAUUCUGGUGAAUCUGCGAAUUCUGCUGUAUAUCUC [A15G A21G A28G], the self-cleavage is 0.53.
On to UAACAGGGGGCCACGGCAGGAGCGUUCACGACGCAGCCCCUGUCAGAUUCUGGUAAAUCUGCGAAUUCUGCUGUAUAUCUC [A15G A20G U31A G55A], for which the self-cleavage was 0.5.
In the case of UAACAGGGGGCCACGGCAGGAGCGUUCACGUCGCAGCCCCUGUCAGAUUCUUGUGAAGCUGCGAAUUCUGCUGUUUACCUC [A15G A20G G52U U58G A75U U78C], the self-cleavage amounted to 0.16.
In the case of UAACAGGGGGCCACGGCAGUAGCGUUCACUUCGCAGCCCCUGUCAGAUUCUGGUGAAUCUGCGAAUUCUGCUGUAUAUCCC [A15G A20U G30U U80C], the self-cleavage was 0.2.
For UAACAGGGGGCCACGGCAGUAGCUUUCACGUCGCAGCCCCUGACAGAUUCUGGUGAAUCCGUGUAUUCUGCUGUAUAUCUC [A15G A20U G24U U43A U60C C62U A64U], the self-cleavage was 0.04.
UAACAGGGGGCCACGGCAGUAGCGUUCACGUCGCAGCCCCCGUCAGAUUCUGGUGAAUCUGCGAAUUCUGCAGUAUAUCUC [A15G A20U U41C U72A]: the self-cleavage amounted to 0.24.
UAACAGGGGGCCACGGCAGUAGCGUACACGUCGCAGCCCCCGUCAGACUCUGGUGAAUCUGCAAAUUCUGCUGUAUAUCUC [A15G A20U U26A U41C U48C G63A]: the self-cleavage was 0.06.
Turning to UAACAGGGGGCCACGGCAGACGCGUUCACGUCGCAGCCCCUGUCAGGUUCUGGCGAAUCUGCAAAUUCAGCUGUAUAUCUC [A15G A21C A47G U54C G63A U69A], the self-cleavage amounted to 0.08.
UAACAGGGGGCCACGGCAGUAGCGUUCACGUCGCAGCCCCCGUCAGAUUCUGGUGAAUCUGCGAAUUCUGCUGUACAUCUC [A15G A20U U41C U76C]: the self-cleavage is 0.22.
Regarding UAACAGGGGGCCACGGCAGGAGCGUUCACGUCGCAGCCCCUGUCAGACUCUGGUGAAUCCGCGAAUUCUGCUGUAUAUCUC [A15G A20G U48C U60C], the self-cleavage worked out at 0.31.
As to UAACAGGGGGCCACGGCAGGAGCGUUCACGUCGCAGCCCCUGUCAGAUUCUGGUGAAUCCGCAAAUUCUGCUGUAUAUCUC [A15G A20G U60C G63A], the self-cleavage amounted to 0.14.
In the case of UAACAGGGGGCCACGGCAGGAGCGUACACGUCGCAGCCCCCGUCAGAUUCUGGUGAAUCCGCGAAUUCUGCUGUAUAUCUC [A15G A20G U26A U41C U60C], the self-cleavage was 0.
Take UAACAGGGGGCCACGGCAGACGCGUUCACGUCGCAGCCUCUGACAGAUUCUGGUGAAUCUGCGAAUUCUGCUGUAUAUCCC [A15G A21C C39U U43A U80C]: the self-cleavage worked out at 0.07.
The figure for UAACAGGGGGCCACGGCAGUAGCGUUCACGUCGCAGCCCCUGUCAGGUUCUGGUGAAUCCGCGAAUUCUGCUGUAUAUCUC [A15G A20U A47G U60C] is 0.1.
For UAACAGGGGGCCACGGCAGAGGCGUUCGCCUCGCAGCCCCUGUCAGAUUCUGGUCAAUCUGCGAAUUCUGCUGUAUAUCUC [A15G A21G A28G G30C G55C], the self-cleavage turned out to be 0.08.
The figure for UAACAGGGGGCCACGGCAGGAGCGUUCACGUCGCAGCCCCAGUCAGGUUCUGGUGAAUCUGCGAAUUCUGCAGUAUGUCUC [A15G A20G U41A A47G U72A A77G] is 0.09.
Under UAACAGGGGGCCACGGCAGAGGCGUUCACGUCGCGGCCCCUGUCAGAUUCAGGUGAAUCUGCGAAUUCUGCUGUAUAUCUC [A15G A21G A35G U51A] stands 0.22; under UAACAGGGGGCCACGGCAGGAGCGUACACGUCGCAGCCCCUGUCAGAUUCAGGUGAAUCUGCGAAUUUUGCCGUAUAUCUC [A15G A20G U26A U51A C68U U72C], 0.49; under UAACAGGGGGCCACGGCAGUAGCGUUCACGUCGCAGCCCCUGUCAGAUUCUGGUGAAUCUGCGAAAUCUGCUGUAUAUCAC [A15G A20U U66A U80A], 0.19.
Turning to UAACAGGGGGCCACGGCAGUAGCGUUCACGUCGAAGCCCCUGUCAGACUCUGAUGAAUCUGCGAAUUCUGCUGUAUAUCUC [A15G A20U C34A U48C G53A], the self-cleavage is 0.06.
Consider UAACAGGGGGCCACGGCAGGAGCGUCCACGUCGCAGCCCCUGUCAGAUUCUGGUGGAUCUGCGAAUUCUGCUGUAUACCUC [A15G A20G U26C A56G U78C], for which the self-cleavage was determined as 0.11.
As to UAACAGGGGGCCACGGCAGUAGCGUGCACGUCGCAGCCCCUGUCAGAUUCUGGUGGAUCUGCGAAAUCUGCUGUAUAUCUC [A15G A20U U26G A56G U66A], the self-cleavage was 0.08.
